# Assay results from publication PMC6212790.
# The list shows a part of the results. At the low end of the ranking the order means little.
# Molecular target: T1, GST-Rok (full length) (UniProt O34857)
# T1 sequence: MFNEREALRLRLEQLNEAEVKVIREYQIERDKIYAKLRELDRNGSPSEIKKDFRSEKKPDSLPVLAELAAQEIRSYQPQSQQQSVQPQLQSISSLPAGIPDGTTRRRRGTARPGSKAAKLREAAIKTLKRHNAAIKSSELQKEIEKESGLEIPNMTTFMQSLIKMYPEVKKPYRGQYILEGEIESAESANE
# Experiment: protein binding microarray;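 note: rank score from −0.5 (least bound) to 0.5 (best bound)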
# Details: Rok is a gene silencer of Bacillus subtilis; high values mean tight binding; most listed sequences are background and not binding sites; double strand, one strand shown
row,Sequence,binding signal
1,GCGCCTAA,-0.108 E-score
2,CATTACTC,0.136 E-score
3,CAACGTAC,0.0498 E-score
4,AAAACCTG,0.0684 E-score
5,CATACGAG,0.069 E-score
6,AGCGTTGC,-0.159 E-score
7,ACTTTGGC,-0.0107 E-score
8,AAAATCGC,0.0967 E-score
9,AGCTAGAT,0.215 E-score
10,GGTCCTCA,-0.174 E-score
11,GGCTGAAC,-0.117 E-score
12,TCATGAAA,-0.0419 E-score
13,CGTAGACG,-0.174 E-score
14,ACTCTGAC,-0.144 E-score
15,TACCATAA,0.336 E-score
16,ATGATACC,0.168 E-score
17,AGGGCGGG,-0.388 E-score
18,GAGTTTAC,0.189 E-score
19,ATATTATC,0.319 E-score
20,CAGTGATG,-0.204 E-score
21,GCAGCACC,-0.0543 E-score
22,CGACTCAG,-0.108 E-score

row,Sequence,binding signal
1,ACTGGACT,-0.0397 E-score
2,TACCCTAA,-0.136 E-score
3,CCGCGACC,-0.307 E-score
4,AAGGCGCG,-0.258 E-score
5,CACACTGG,-0.155 E-score
6,ACAGGTAT,0.164 E-score
7,GGAATCAA,0.103 E-score
8,AAATGCGG,0.0159 E-score
9,ACATGTGC,-0.158 E-score
10,AGACGACT,-0.0474 E-score
11,ATGTTGCG,0.176 E-score
12,ATTTACAA,0.368 E-score
13,CTCGACTA,-0.132 E-score
14,AACCCGGC,-0.192 E-score
15,GGGGTCCA,-0.48 E-score
16,CATCATCA,-0.0806 E-score
17,AAATCCGT,-0.0278 E-score
18,ACGTCCCT,-0.262 E-score
19,ACTTGAGA,-0.000684 E-score
20,ACGGTTCC,-0.189 E-score
21,GGGCCCTA,-0.319 E-score
22,ACCCTACA,0.0991 E-score

row,Sequence,binding signal
1,AGAGTAAT,0.197 E-score
2,TACTGACA,0.0395 E-score
3,TCATCGGA,-0.204 E-score
4,AGACCCGG,-0.0467 E-score
5,ACCATGCA,0.136 E-score
6,AGCTCCGG,-0.131 E-score
7,AATGAGAA,0.0614 E-score
8,ATCACAAG,-0.0596 E-score
9,ATGTTCCG,-0.0624 E-score
10,GCATTATA,0.193 E-score
11,GACCCCTA,-0.355 E-score
12,ATATGCGG,0.0379 E-score
13,CATATATA,0.38 E-score
14,CCCATTAC,-0.0646 E-score
15,ATTTTCTC,0.264 E-score
16,ACCCACCC,-0.00328 E-score
17,CAATATGA,0.0587 E-score
18,TCTCCAGA,0.103 E-score
19,ACTTTTAA,0.158 E-score
20,GGAGGGGA,-0.419 E-score
21,ATTTCCAC,-0.0661 E-score
22,CCCCCAGA,-0.441 E-score

row,Sequence,binding signal
1,CTCAGAAC,-0.0411 E-score
2,CGCTAGTA,0.31 E-score
3,CCAGTGGG,-0.319 E-score
4,CCTCTCAG,-0.299 E-score
5,ACACGAGA,-0.0131 E-score
6,ATGCGCTG,0.186 E-score
7,CCCCGGTC,-0.158 E-score
8,ACTAGCCC,-0.103 E-score
9,AACCTCAT,-0.155 E-score
10,TCTCTGAA,-0.0711 E-score
11,CAAATTAA,0.107 E-score
12,ACTCCTCC,-0.27 E-score
13,CGTAGCTA,0.365 E-score
14,GTCCACAA,-0.186 E-score
15,GTAATTCA,0.212 E-score
16,CATACGGC,-0.16 E-score
17,GGACTAAA,0.0714 E-score
18,TAAAGAGA,0.0606 E-score
19,ACCGGACT,-0.00817 E-score
20,GTGACGCA,-0.175 E-score
